Sequences with one replicate were seen in a single cluster, so their values are uncertain.
What follows are sequences tested on ATP (assay: switch fluorescence ratio, 500 uM ATP over buffer (Cy3 cluster intensity, sum of 5 cycles each) (fold (ratio)); higher = stronger signal-on switching upon ATP binding; sequences stand for … in TCGTCGGCAGCGTCAGATGTGTATAAGAGACAGTTTTTTTTTTTTTTTTTTTTTTTTT…TC). Details: aptamer strand: ATP DNA aptamer (quencher-CACCTGGGGGAGTATTGCGGAGGAAGG + anchor), 100 nM annealed; ATP concentration: 500 uM; one replicate.
Procedure, shortened: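 The fluorescence ratio divides summed target-cycle Cy3 intensity by summed buffer-cycle Cy3 intensity for each cluster and is averaged per switch-domain sequence. Cy3-labelled switching-strand clusters on a modified Illumina MiSeq flow-cell were annealed to 100 nM quencher-labelled ATP aptamer, then imaged in selection buffer and again after 15 min with 500 uM ATP at 22 °C. Five such cycles were run, with NaOH stripping and re-annealing between them, and clusters outside 100-1000 RFU were excluded.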
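Further: ATP exposure 15 min at 22 °C before imaging.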

**Q.** How did the switch fluorescence ratio turn out when ACTCATGATC was run?
**A.** 1.11

**Q.** For ACTCATGGGT, which switch fluorescence ratio is on record?
**A.** 1.02

**Q.** Which switch fluorescence ratio does the source give for ACTCATTTCA here?
**A.** 1.05

**Q.** How did the switch fluorescence ratio turn out when ACTCCAAACC was run?
**A.** 1.45

**Q.** How did the switch fluorescence ratio turn out when ACTCCGGCTG was run?
**A.** 2.6

**Q.** Which switch fluorescence ratio does the source give for ACTCCTGGCG here?
**A.** 1.03

**Q.** With ACTCGACTGG as the sequence, how does the switch fluorescence ratio read?
**A.** 1.05

**Q.** Which switch fluorescence ratio does the source give for ACTCGATGAT here?
**A.** 0.985

**Q.** Which switch fluorescence ratio does the source give for ACTCGCCGTC here?
**A.** 0.975

**Q.** How did the switch fluorescence ratio turn out when ACTCGCTTTA was run?
**A.** 1.13

**Q.** With ACTCGGCTGT as the sequence, how does the switch fluorescence ratio read?
**A.** 1.52

**Q.** How did the switch fluorescence ratio turn out when ACTCGGGCGT was run?
**A.** 1.19

**Q.** How did the switch fluorescence ratio turn out when ACTCGGGGAA was run?
**A.** 1.05

**Q.** How did the switch fluorescence ratio turn out when ACTCGGTACC was run?
**A.** 1.04

**Q.** With ACTCGTGCCT as the sequence, how does the switch fluorescence ratio read?
**A.** 1

**Q.** How did the switch fluorescence ratio turn out when ACTCTAGCTG was run?
**A.** 1.2

**Q.** ACTCTAGTG was tested. Which switch fluorescence ratio did it give?
**A.** 1.01

**Q.** How did the switch fluorescence ratio turn out when ACTCTCAAAA was run?
**A.** 0.98

**Q.** How did the switch fluorescence ratio turn out when ACTCTCATCG was run?
**A.** 1.06

**Q.** For ACTCTCGAAA, which switch fluorescence ratio is on record?
**A.** 1.56

**Q.** With ACTCTCGGCA as the sequence, how does the switch fluorescence ratio read?
**A.** 1.29

**Q.** With ACTCTGCGCG as the sequence, how does the switch fluorescence ratio read?
**A.** 1.26

**Q.** How did the switch fluorescence ratio turn out when ACTCTGGGTG was run?
**A.** 2.08

**Q.** ACTCTGTCTG was tested. Which switch fluorescence ratio did it give?
**A.** 1.1

**Q.** Which switch fluorescence ratio does the source give for ACTCTGTTTG here?
**A.** 1.01

**Q.** Which switch fluorescence ratio does the source give for ACTCTTGAGC here?
**A.** 0.982

**Q.** How did the switch fluorescence ratio turn out when ACTCTTTAGC was run?
**A.** 1.02

**Q.** How did the switch fluorescence ratio turn out when ACTGAAAGAA was run?
**A.** 1.58

**Q.** For ACTGAGAGCG, which switch fluorescence ratio is on record?
**A.** 1.03

**Q.** How did the switch fluorescence ratio turn out when ACTGAGGCAG was run?
**A.** 1.09

**Q.** Which switch fluorescence ratio does the source give for ACTGAGGTGA here?
**A.** 1.03

**Q.** How did the switch fluorescence ratio turn out when ACTGAGGTTT was run?
**A.** 1.03

**Q.** ACTGATACGA was tested. Which switch fluorescence ratio did it give?
**A.** 1.18

**Q.** Which switch fluorescence ratio does the source give for ACTGCACTCC here?
**A.** 1.69

**Q.** How did the switch fluorescence ratio turn out when ACTGCATCTG was run?
**A.** 1.03

**Q.** ACTGCCCTCG was tested. Which switch fluorescence ratio did it give?
**A.** 1.14

**Q.** ACTGCGAGTG was tested. Which switch fluorescence ratio did it give?
**A.** 1.04

**Q.** For ACTGCTAATG, which switch fluorescence ratio is on record?
**A.** 1.03

**Q.** For ACTGCTGGAA, which switch fluorescence ratio is on record?
**A.** 0.988

**Q.** For ACTGCTGGGT, which switch fluorescence ratio is on record?
**A.** 0.989

**Q.** ACTGCTTGAG was tested. Which switch fluorescence ratio did it give?
**A.** 1.01

**Q.** With ACTGGACGCG as the sequence, how does the switch fluorescence ratio read?
**A.** 1.1

**Q.** ACTGGACTGC was tested. Which switch fluorescence ratio did it give?
**A.** 1.2

**Q.** Which switch fluorescence ratio does the source give for ACTGGGCGGG here?
**A.** 1

**Q.** For ACTGGGCTGG, which switch fluorescence ratio is on record?
**A.** 0.966

**Q.** With ACTGGTCTGG as the sequence, how does the switch fluorescence ratio read?
**A.** 1

**Q.** For ACTGGTTACC, which switch fluorescence ratio is on record?
**A.** 1.06

**Q.** With ACTGTAAAGG as the sequence, how does the switch fluorescence ratio read?
**A.** 1.05

**Q.** With ACTGTACCTG as the sequence, how does the switch fluorescence ratio read?
**A.** 1.44

**Q.** ACTGTATACA was tested. Which switch fluorescence ratio did it give?
**A.** 1.17

**Q.** How did the switch fluorescence ratio turn out when ACTGTCCCCT was run?
**A.** 1.01

**Q.** With ACTGTCTTGG as the sequence, how does the switch fluorescence ratio read?
**A.** 0.998

**Q.** With ACTGTGCTTG as the sequence, how does the switch fluorescence ratio read?
**A.** 1.03

**Q.** How did the switch fluorescence ratio turn out when ACTGTGGACT was run?
**A.** 1.04

**Q.** Which switch fluorescence ratio does the source give for ACTGTTTTAG here?
**A.** 1.08

**Q.** With ACTTAAAGTG as the sequence, how does the switch fluorescence ratio read?
**A.** 1.04

**Q.** ACTTAAGAT was tested. Which switch fluorescence ratio did it give?
**A.** 1.03

**Q.** ACTTAATTCC was tested. Which switch fluorescence ratio did it give?
**A.** 1.12

**Q.** Which switch fluorescence ratio does the source give for ACTTAATTCT here?
**A.** 1.03

**Q.** Which switch fluorescence ratio does the source give for ACTTATAAGT here?
**A.** 0.969

**Q.** ACTTATCTA was tested. Which switch fluorescence ratio did it give?
**A.** 1

**Q.** With ACTTATGGTC as the sequence, how does the switch fluorescence ratio read?
**A.** 1.04

**Q.** ACTTATGTA was tested. Which switch fluorescence ratio did it give?
**A.** 1.04

**Q.** Which switch fluorescence ratio does the source give for ACTTATTTAC here?
**A.** 1.05

**Q.** With ACTTATTTGT as the sequence, how does the switch fluorescence ratio read?
**A.** 0.984

**Q.** For ACTTCAGGGC, which switch fluorescence ratio is on record?
**A.** 1.07

**Q.** How did the switch fluorescence ratio turn out when ACTTCATATC was run?
**A.** 1.02

**Q.** ACTTCCGGTG was tested. Which switch fluorescence ratio did it give?
**A.** 2.53

**Q.** For ACTTCCTCTT, which switch fluorescence ratio is on record?
**A.** 1.89

**Q.** How did the switch fluorescence ratio turn out when ACTTCCTTTC was run?
**A.** 1.35

**Q.** ACTTCTAC was tested. Which switch fluorescence ratio did it give?
**A.** 2.33

**Q.** Which switch fluorescence ratio does the source give for ACTTGACAAC here?
**A.** 1.15

**Q.** ACTTGACT was tested. Which switch fluorescence ratio did it give?
**A.** 1.19

**Q.** With ACTTGATAGC as the sequence, how does the switch fluorescence ratio read?
**A.** 1

**Q.** For ACTTGCGTGG, which switch fluorescence ratio is on record?
**A.** 0.997

**Q.** Which switch fluorescence ratio does the source give for ACTTGCTAAA here?
**A.** 1

**Q.** How did the switch fluorescence ratio turn out when ACTTGGACAG was run?
**A.** 1.05

**Q.** How did the switch fluorescence ratio turn out when ACTTGGCCGC was run?
**A.** 1.11

**Q.** ACTTGGGTGC was tested. Which switch fluorescence ratio did it give?
**A.** 1.1

**Q.** With ACTTGGGTTT as the sequence, how does the switch fluorescence ratio read?
**A.** 1

**Q.** Which switch fluorescence ratio does the source give for ACTTGGTATC here?
**A.** 0.988

**Q.** ACTTGTAACC was tested. Which switch fluorescence ratio did it give?
**A.** 0.987

**Q.** Which switch fluorescence ratio does the source give for ACTTGTCTTG here?
**A.** 0.969

**Q.** ACTTGTGGCA was tested. Which switch fluorescence ratio did it give?
**A.** 1

**Q.** How did the switch fluorescence ratio turn out when ACTTTAACCG was run?
**A.** 1.15
